Assay [1] has as its target T1, human dopamine transporter (hDAT) (Homo sapiens, UniProt Q01959). Briefly: Inhibition of [125I]RTI-55 binding in HEK-hDAT cell membranes. Set-up: expressed in transfected cells.
Assay [2] concerns the target human norepinephrine transporter (hNET) (Homo sapiens, UniProt P23975). The experiment in a line: Inhibition of radioligand binding in HEK-hNET cell membranes. Further details: expressed in transfected cells.
Assay [3] concerns the target T1, human dopamine transporter (hDAT). The experiment in a line: cell-based. As to conditions: for Ki: Reuptake (Kr, nM) hDAT, Table 1.
The mark [4] stands for this setting: Table 2, read-out: Binding (ki, nM) hDAT.
The mark [5] stands for this setting: Table 2, read-out: Binding (ki, nM) hNET.
Setting [6] is: Table 1, read-out: Binding (Ki, nM) hDAT.
Where [7] appears, read: Table 1, read-out: Binding (Ki, nM) hNET.
[8] abbreviates: read-out: Binding (Ki, nM) hDAT.

In patent publication US20130123253A1, “MODULATORS OF CENTRAL NERVOUS SYSTEM NEUROTRANSMITTERS” (HUMAN BIOMOLECULAR RESEARCH INSTITUTE, priority 2004, published 2013) one finds Ki and IC50 data, which are given here for 42 molecules.

SMILES strings stand for the structures. Read-outs that look alike come from different tables or passages of the source.

Usually Ki stands for the equilibrium dissociation constant of an inhibitor or competing ligand from its target. As usually defined, the IC50 is the concentration that gives 50% inhibition.

UniProt P23975, sequence (P23975 whole entry): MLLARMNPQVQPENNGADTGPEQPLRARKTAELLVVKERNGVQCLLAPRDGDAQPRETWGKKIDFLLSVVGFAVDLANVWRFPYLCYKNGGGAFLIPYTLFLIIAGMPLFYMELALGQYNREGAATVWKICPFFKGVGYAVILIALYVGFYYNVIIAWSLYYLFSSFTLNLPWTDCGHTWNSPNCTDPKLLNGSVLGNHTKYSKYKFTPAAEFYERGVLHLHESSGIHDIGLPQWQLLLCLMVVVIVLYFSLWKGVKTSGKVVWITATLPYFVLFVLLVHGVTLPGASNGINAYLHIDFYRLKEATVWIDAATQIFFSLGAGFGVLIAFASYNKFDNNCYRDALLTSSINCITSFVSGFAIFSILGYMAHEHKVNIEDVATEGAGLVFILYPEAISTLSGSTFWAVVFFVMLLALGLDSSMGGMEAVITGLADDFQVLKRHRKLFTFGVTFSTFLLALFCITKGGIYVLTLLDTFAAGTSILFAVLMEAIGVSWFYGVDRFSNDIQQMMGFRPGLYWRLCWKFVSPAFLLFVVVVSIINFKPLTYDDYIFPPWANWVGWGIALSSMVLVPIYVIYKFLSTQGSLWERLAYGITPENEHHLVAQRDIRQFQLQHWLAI
T1 sequence (Q01959 whole entry): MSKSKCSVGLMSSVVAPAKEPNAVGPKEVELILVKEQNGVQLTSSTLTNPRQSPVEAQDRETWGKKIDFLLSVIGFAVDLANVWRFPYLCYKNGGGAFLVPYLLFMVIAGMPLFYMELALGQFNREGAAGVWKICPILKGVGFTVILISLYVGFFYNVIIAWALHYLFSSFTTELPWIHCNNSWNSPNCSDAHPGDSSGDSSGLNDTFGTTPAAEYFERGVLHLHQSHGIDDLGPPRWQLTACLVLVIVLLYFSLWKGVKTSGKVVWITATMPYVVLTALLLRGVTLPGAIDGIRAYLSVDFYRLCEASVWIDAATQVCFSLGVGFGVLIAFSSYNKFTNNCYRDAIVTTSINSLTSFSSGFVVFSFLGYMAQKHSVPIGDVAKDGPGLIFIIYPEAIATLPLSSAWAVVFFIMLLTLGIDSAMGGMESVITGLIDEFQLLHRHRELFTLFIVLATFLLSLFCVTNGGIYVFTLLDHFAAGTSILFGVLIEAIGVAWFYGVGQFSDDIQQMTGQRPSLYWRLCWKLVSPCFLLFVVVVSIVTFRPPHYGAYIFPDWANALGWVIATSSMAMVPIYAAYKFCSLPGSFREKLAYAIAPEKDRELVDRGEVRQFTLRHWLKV

As for `c1cc(CCC2CCC(CCNCCC3CCC(CCc4ccncc4)O3)O2)ccn1` (stereo not shown) [N,N-bis(5′-(4″- pyridyl-ethyl)-2′-tetrahydro-furyl-ethyl) amine], the results for the inhibitory constant (Ki) in assay [1] (setting [4]) and in assay [2] (setting [5]) were 9330 nM and 1620 nM, respectively.

In the case of `NCCC1CCC(c2ccc(F)cc2)O1` (stereo not shown) [2-(aminoethyl)-5-(4′-fluorophenyl) tetrahydrofuran], the Ki in assay [1] (setting [6]) and in assay [2] (setting [7]) was over 10000 nM each time.

As to `Brc1ccc(C2CCC(CCNCCC3CCC(c4ccc(Br)cc4)O3)O2)cc1` (stereo not shown) [N,N-bis(5′-(p-bromo-phenyl)-2′-tetra-hydrofuryl-ethyl) Amine], the Ki in assay [1] (setting [4]) came out at 443 nM; in assay [2] (setting [5]) it was 2690 nM.

Consider `COc1ccc(F)cc1CC[C@H]1CC[C@H](CN)O1` (relative stereo) [Compound 18i, Trans-2-(aminomethyl)-5-(2′-methoxy-5′-fluorophenethyl)tetrahydrofuran], for which the IC50 in assay [3] turned out to be 8.55 µM.

Turning to `NCCC1CCC(C2CCCCC2)O1` (stereo not shown) [2-(aminoethyl)-5-cyclohexyl tetrahydrofuran,], the inhibition constant Ki in assay [1] (setting [6]) and in assay [2] (setting [7]) was over 10000 nM each time.

As for `COc1ccc(F)cc1C[C@H]1CC[C@H](CN)O1` (stereo in doubt) [Compound 18e, Trans-2-aminomethyl-5-(2′-methoxy-5′-fluorophenylmethyl)tetrahydrofuran], affinity in assay [1] (Binding (Ki, nM) hDAT) was put at a Ki of 27200 nM.

`COc1ccc(CCC2CCC(CN)O2)cc1OC` (stereo not shown) [2-(aminomethyl)-5-(3′,4′di-methoxy-phenethyl) tetrahydrofuran]: the inhibition constant Ki came to 7920 nM in assay [1] (setting [6]) and 8640 nM in assay [2] (setting [7]).

With `C1CCC(C2CCC(CCNCCC3CCC(C4CCCCC4)O3)O2)CC1` (stereo not shown) [N,N-bis (5′-cyclo-hexyl-2′-tetra-hydro-furyl-ethyl) amine], the Ki in assay [1] (setting [4]) is 5960 nM; in assay [2] (setting [5]), 8430 nM.

Consider `COc1ccc(F)cc1C1CCC(CN)O1` (stereo not shown) [2-(aminomethyl)- 5-(2′-methoxy-5′- fluorophenyl) tetrahydrof] [2-(aminomethyl)-5-(2′-methoxy-5′-fluorophenyl) tetrahydrofuran], for which, in assay [1] (setting [8]), the Ki was 42800 nM.

Consider `COc1ccc(F)cc1C1CCC(CN)O1` (stereo not shown) [Compound 18b, 2-Aminomethyl-5-(2′-methoxy-5′-fluorophenyl)tetrahydrofuran], for which the Ki in assay [1] (setting [8]) came out at 42800 nM.

For the molecule `NCCC1CCC(c2ccco2)O1` (stereo not shown) [2-(aminoethyl)-5-(2′-furyl)tetra-hydrofuran], the Ki in assay [1] (setting [6]) amounted to 89400 nM; in assay [2] (Binding (Ki, nM) hNET) it was 50600 nM.

On to `COc1ccc(F)cc1C[C@@H]1CC[C@@H](CN)O1` (stereo in doubt) [trans-2-(aminomethyl)-5-(5′-fluoro-2′-methoxybenzyl) tetrahydrofuran], for which the affinity in assay [1] (Binding (Ki, nM) hDAT), expressed as Ki, was 27200 nM.

`COc1ccc(F)cc1C1CCC(CN)O1` (stereo not shown) [2-(aminomethyl)-5-(2′-methoxy-5′-fluorophenyl) tetrahydrofuran] displayed a Ki in assay [3] of over 10000 nM.

As for `COc1ccc(F)cc1C[C@H]1CC[C@H](CCNCC[C@@H]2CC[C@@H](Cc3cc(F)ccc3OC)O2)O1` [N,N-Bis (trans-5′-(2″- methoxy-5″-fluoro-benzyl-2′-tetrahydro-furyl)-2-ethyl)amine], the Ki in assay [1] (setting [4]) is 2390 nM; in assay [2] (setting [5]), 727 nM.

Regarding `Cc1ccc(CCC2CCC(CCN)O2)cc1F` (stereo not shown) [2-(aminoethyl)-5-(3′-fluoro-4′-methylphenethyl) tetrahydrafuran], the inhibition constant Ki in assay [1] (setting [6]) was found to be 8840 nM; in assay [2] (setting [7]), 5630 nM.

Consider `COc1ccc(F)cc1C1CC[C@@H](CCNCCc2ccccc2)O1` (stereo partly drawn) [Cis-2-(Phenethyl-aminoethyl)-5-(2′-methoxy-5′-fluorophenyl) tetrohydrofuran], for which the inhibition constant (Ki) was determined as 3350 nM in assay [1] (setting [6]) and 589 nM in assay [2] (setting [7]).

Consider `NCCC1CCC(c2ccc(Br)cc2)O1` (stereo not shown) [2-(aminoethyl)-5-(4′-bromophenyl) tetrahydrofuran], for which the inhibitory constant (Ki) in assay [1] (setting [6]) and in assay [2] (setting [7]) was over 10000 nM throughout.

For the molecule `COc1ccc(F)cc1CCC[C@@H]1CC[C@@H](CN)O1` (stereo in doubt) [trans-2-amino-methyl-5-((2″-methoxy-5″- fluorophenyl)-3′-propyl)tetra-hydrofuran], the inhibition constant (Ki) in assay [1] (setting [6]) is 7330 nM.

Consider `NC[C@@H]1CC[C@@H](c2cnc3ccccc3c2)O1` (relative stereo) [trans-2-(aminomethyl)-5-(3′-quinoline) tetrahydrofuran], for which the inhibitory constant (Ki) is 62200 nM in assay [1] (setting [6]) and 19900 nM in assay [2] (setting [7]).

Take `NC[C@@H]1CC[C@@H](c2ccccn2)O1` (relative stereo) [trans-2-(aminomethyl)-5-(2′-pyridyl) tetrahydrofuran.]: the Ki in assay [1] (setting [6]) was 484000 nM; in assay [2] (setting [7]) it was 93400 nM.

Turning to `COc1ccc2ccccc2c1CCC1CCC(CN)O1` (stereo not shown) [2-(aminomethyl)-5-(2′-methoxy-1′-napheyhyl) tetrahydrofuran], the Ki in assay [1] (setting [6]) and in assay [2] (setting [7]) was over 10000 nM each time.

On to `COc1ccc(CCC2CCC(CCNCCC3CCC(CCc4ccc(OC)c5ccccc45)O3)O2)c2ccccc12` (stereo not shown) [N,N-bis(5′-(4″-meth-oxy-1″-naphth-ethyl)-2′-tetrahydro-furyl-ethyl) amine], for which the inhibition constant Ki in assay [1] (setting [4]) was 5670 nM; in assay [2] (setting [5]), over 10000 nM.

Regarding `NCCC1CCC(CCc2ccncc2)O1` (stereo not shown) [2-(aminoethyl)-5-(4′-pyridylethyl) tetrahydrofuran,], the values for the Ki in assay [1] (setting [6]) and in assay [2] (setting [7]) were 55200 nM and 13300 nM, respectively.

For the molecule `NCC1CCC(c2cnc3ccccc3c2)O1` (stereo not shown) [2-(amino-methyl)-5-(3′-quinoline) tetrahydrofuran], the values for the Ki in assay [1] (setting [6]) and in assay [2] (setting [7]) were 63700 nM and 22700 nM, respectively.

`Oc1ccc(CCC2CCC(CCNCCC3CCC(CCc4ccc(O)cc4)O3)O2)cc1` (stereo not shown) [N,N-bis (5′-(p-hydroxy-phenethyl)-2′-tetra-hydrofuryl-ethyl) amine]: the Ki in assay [1] (setting [4]) worked out at 36 nM; in assay [2] (setting [5]), 92 nM.

Take `COc1ccc(F)cc1CCCC1CCC(CCN)O1` (stereo not shown) [2-aminoethyl-5- ((2″-methoxy-5″- fluorophenyl)-3′- propyl)te] [2-aminoethyl-5-((2″-methoxy-5″- fluorophenyl)-3′-propyl)tetra-hydrofuran]: the inhibition constant (Ki) in assay [1] (setting [8]) is 7310 nM.

`COc1ccc(F)cc1[C@@H]1CC[C@@H](CCN)O1` (stereo in doubt) [trans-2-(aminoethyl)-5-(2′-methoxy-5′-fluorophenyl) tetrahydrofuran]: the Ki in assay [3] is over 10000 nM.

As to `NCC1CCC(CCc2ccncc2)O1` (stereo not shown) [2-(aminomethyl)-5-(4′-pyridylethyl) tetrahydrofuran], the inhibition constant Ki is 146000 nM in assay [1] (setting [6]) and 57400 nM in assay [2] (setting [7]).

On to `COc1ccc(F)cc1[C@@H]1CC[C@H](CCNCCc2ccccc2)O1` (relative stereo) [Cis-2-Phenethyl-aminoethyl)-5-(2′-methoxy-5′-fluorophenyl) tetrahydrofuran], for which the Ki in assay [1] (setting [6]) came out at 3140 nM; in assay [2] (setting [7]), 363 nM.

In assay [3], `NCC1CCC(CCc2c(F)c(F)c(F)c(F)c2F)O1` (stereo not shown) [2-(aminomethyl)-5-(pentafluoro-phenethyl) tetrahydrofuran] had an inhibition constant Ki of 4590 nM.

In the case of `COc1ccc(F)cc1C[C@H]1CC[C@@H](CCNCC[C@H]2CC[C@@H](Cc3cc(F)ccc3OC)O2)O1` [N,N-bis(cis-5′-(2″- methoxy-5″-fluoro-benzyl-2′-tetrahydro-furyl)-2-ethyl) amine], the Ki in assay [1] (setting [4]) came to 1440 nM; in assay [2] (setting [5]), 682 nM.

For `COc1ccc2ccccc2c1CCC1CCC(CCNCCC2CCC(CCc3c(OC)ccc4ccccc34)O2)O1` (stereo not shown) [N,N-bis(5′-(2″- methoxy-1″-naphth-ethyl)-2′-tetra-hydrofuryl-ethyl) amine], the Ki in assay [1] (setting [4]) was 5510 nM; in assay [2] (setting [5]), over 10000 nM.

For `COc1ccc(F)cc1CCC1CCC(CCNCCC2CCC(CCc3cc(F)ccc3OC)O2)O1` (stereo not shown) [N,N-bis(5′-(5″-fluoro-2″- methoxy-phenethyl)-2′-tetrahydrofurylethyl) Amine], the inhibition constant (Ki) in assay [1] (setting [4]) came to 236 nM; in assay [2] (setting [5]) it was 507 nM.

With `CC(C)(C)c1ccc(C2CCC(CCN)O2)cc1` (stereo not shown) [2-(aminoethyl)-5-(4′-t-butylphenyl) tetrahydrofuran], the Ki in assay [1] (setting [6]) and in assay [2] (setting [7]) was over 10000 nM each time.

Molecule `COc1ccc(F)cc1CCC[C@H]1CC[C@H](CN)O1` (stereo in doubt) [Compound 18m, Trans-2-aminomethyl-5-((2″-methoxy-5″-fluorophenyl)-3′-propyl)tetrahydrofuran] gave a Ki in assay [1] (Binding (Ki, nM) hDAT) of 7330 nM.

As for `CC(C)(C)c1ccc(C2CCC(CCNCCC3CCC(c4ccc(C(C)(C)C)cc4)O3)O2)cc1` (stereo not shown) [N,N-bis (5′-(p-t-butyl-phenyl)-2′-tetra-hydro-furyl-ethyl) amine], the figures for the inhibition constant Ki in assay [1] (setting [4]) and in assay [2] (setting [5]) were 8890 nM and over 10000 nM, respectively.

Take `NCC1CCC(CCc2cc(C(F)(F)F)ccc2Cl)O1` (stereo not shown) [2-(aminomethyl)-5-(2′-chloro-5′-trifluoromethyl) phenethyl)tetra-hydrouran]: the inhibitory constant (Ki) in assay [1] (setting [6]) was over 10000 nM; in assay [2] (setting [7]), 9460 nM.

With `COc1ccc(F)cc1C[C@@H]1CC[C@H](CN)O1` (relative stereo) [cis-2-(aminomethyl)-5-(5′-fluoro-2′-methoxybenzyl) tetrahydrofuran], in assay [1] (setting [8]), the inhibitory constant (Ki) turned out to be 97200 nM.

In the case of `NCC1CCC(CCc2ccc(F)cc2)O1` (stereo not shown) [2-(amino-methyl)-5-(4′-fluorophenethyl) tetrahydrofuran], the Ki in assay [1] (setting [6]) and in assay [2] (setting [7]) was over 10000 nM in each case.

On to `COc1ccc(F)cc1CCCC1CCC(CCN)O1` (stereo not shown) [2-aminoethyl-5-((2″-methoxy-5″- fluorophenyl)-3′-propyl)tetra-hydrofuran], for which, in assay [3], the Ki came out at 17000 nM.

On to `NCCC1CCC(c2ccccc2)O1` (stereo not shown) [2-(aminoethyl)-5-phenyltetrahydro-furan], for which, in assay [2] (setting [7]), the Ki was over 10000 nM.

On to `Cc1ccc(CCC2CCC(CCNCCC3CCC(CCc4ccc(C)c(F)c4)O3)O2)cc1F` (stereo not shown) [N,N-bis(5′-(m-fluoro-p-methyl-phenethyl)-2′-tetrahydro-furylethyl) amine], for which the figures for the Ki in assay [1] (setting [4]) and in assay [2] (setting [5]) were 474 nM and 4100 nM, respectively.
